{
  "source": "PubChem BioAssay AID1460",
  "about": "(National Center for Advancing Translational Sciences (NCATS), 2008)",
  "note": "Where “and” joins values, the source holds several entries; their conditions need not be identical. Equal entries are not always repeated. Hit rate of the full screen: of about 270,000 compounds, about 5,800 (2.1%) were called active. This list was built around the results that the source calls inconclusive (neither active nor inactive); the mix of calls is not that of the screen. Calls come from the whole dose curve; as a rule, active = well fitted inhibition curve with a large enough effect; inconclusive = small, poorly fitted or top-dose-only effect; inactive = flat fitted curve, though single readings scatter. Where the call is inconclusive, the potency comes from a doubtful curve fit. % is set by controls: 0 for no effect and ±100 for the full control effect; potency is the fitted concentration of half-maximal effect; tags give direction and shape of the fitted curve.",
  "data": [
    {"molecular_target": "Microtubule-associated protein tau (Homo sapiens) (UniProt P10636)", "sequence (P10636 whole entry, looked up, the tested form may be a part)": "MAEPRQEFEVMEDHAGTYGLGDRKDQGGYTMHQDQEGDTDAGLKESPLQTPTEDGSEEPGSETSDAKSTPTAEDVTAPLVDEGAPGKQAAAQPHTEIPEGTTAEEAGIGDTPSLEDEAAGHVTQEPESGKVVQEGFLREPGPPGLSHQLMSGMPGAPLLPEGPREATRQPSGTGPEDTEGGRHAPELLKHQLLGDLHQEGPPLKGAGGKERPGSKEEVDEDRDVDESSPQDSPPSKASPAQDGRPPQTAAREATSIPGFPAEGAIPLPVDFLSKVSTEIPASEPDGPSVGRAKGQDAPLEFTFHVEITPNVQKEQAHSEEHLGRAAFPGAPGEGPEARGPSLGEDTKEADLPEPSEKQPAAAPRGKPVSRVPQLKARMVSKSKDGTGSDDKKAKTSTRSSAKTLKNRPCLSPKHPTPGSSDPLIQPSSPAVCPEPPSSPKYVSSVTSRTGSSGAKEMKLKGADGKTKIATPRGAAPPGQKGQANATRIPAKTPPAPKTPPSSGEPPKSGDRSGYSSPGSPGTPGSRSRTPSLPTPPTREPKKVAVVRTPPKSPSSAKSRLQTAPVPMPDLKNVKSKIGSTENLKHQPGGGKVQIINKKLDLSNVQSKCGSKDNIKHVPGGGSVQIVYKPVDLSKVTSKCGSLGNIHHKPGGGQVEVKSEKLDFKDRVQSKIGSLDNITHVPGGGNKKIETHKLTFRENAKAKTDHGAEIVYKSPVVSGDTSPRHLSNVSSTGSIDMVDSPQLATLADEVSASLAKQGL", "test": "qHTS for Inhibitors of Tau Fibril Formation, Thioflavin T Binding; note: nearly all actives have a fitted effect of over 55% in size", "conditions": "recombinant tau K18 P301L (four-repeat tau fragment), heparin-induced fibrillization, ThT fluorescence; series mostly up to 57.4 µM; activity, negative = inhibition: at the top concentration", "method_in_brief": "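Tau K18 P301L fragment (15 uM unlabeled plus 0.24 uM Alexa 594-labeled) in 100 mM sodium acetate pH 7 with compound, fibrillization induced by 20 uM heparin for 6 hr at 37 C. Thioflavin T (30 uM) added, fluorescence read after 1 hr (ex 450, em 510 nm).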", "values": [
      {"compound": "CCc1ccc(NC(=O)CSc2ccc(-c3sc(-c4ccccc4)nc3C)nn2)cc1", "Potency": "inconclusive: 5.01 µM [inhibitor, full curve, poor fit]"},
      {"compound": "COCCNC(=S)N/N=C/c1ccc2c(c1)OCCO2", "activity, negative = inhibition": "inactive: -9.02%"},
      {"compound": "COc1ccc(Br)c(/C=N/NC(=O)COc2ccc(-c3ccccc3)cc2)c1", "Potency": "inconclusive: 2.82 µM [inhibitor, full curve]"},
      {"compound": "COC(=O)c1ccc(Oc2nc(NC(C)C)nc(N(C)C)n2)cc1", "Potency": "inconclusive: 35.5 µM [inhibitor, single point]"},
      {"compound": "O=C(Nc1ccccc1F)Nc1cccc2ccc(O)cc12", "Potency": "active: 15.8 µM"},
      {"compound": "COc1ccccc1NC(=O)CSc1nc2c(sc3ccccc32)c(=O)n1CCN(C)C", "Potency": "inconclusive: 22.4 µM [inhibitor, partial curve]"},
      {"compound": "COc1ccc(C(C#N)N2CCCCC2)cc1OC", "note": "(stereo not drawn)", "activity, negative = inhibition": "inactive: -5.3%"},
      {"compound": "CCC(C)NC(=O)CCCn1c(=O)c2cccn2c2ccccc21", "note": "(stereo not drawn)", "Potency": "inconclusive: 5.01 µM [inhibitor, full curve]"},
      {"compound": "Cc1[nH]c2ccccc2c(=O)c1CN1CCCCC1", "activity, negative = inhibition": "inactive: 2.83%"},
      {"compound": "C=C1C(=O)O[C@@H]2C[C@@H](C)[C@@H]3C=CC(=O)[C@@]3(C)[C@@H](OC(C)=O)[C@H]12", "Potency": "active: 3.98 µM"},
      {"compound": "CCCCC(=O)Nc1nc(C)c(-c2csc(Nc3cc(Cl)ccc3OC)n2)s1", "Potency": "inconclusive: 8.91 µM [inhibitor, partial curve]"},
      {"compound": "O=C(CSc1nc2ccc(NC(=O)CSc3nnnn3Cc3ccccc3)cc2s1)Nc1ccccc1", "activity, negative = inhibition": "inactive: -10.2%"},
      {"compound": "O=S(=O)(CCSc1nc2ccccc2o1)c1nc2ccccc2s1", "Potency": "inconclusive: 12.6 µM [inhibitor, partial curve]"},
      {"compound": "COc1ccc(NC(=O)n2nc(OC(=O)c3cccs3)cc2N)cc1", "Potency": "inconclusive: 12.6 µM [inhibitor, single point]"},
      {"compound": "Cc1ccccc1CNC(=O)Cn1nc(C)c2nn(-c3ccc(Cl)cc3)c(C)c2c1=O", "activity, negative = inhibition": "inactive: 4.61%"},
      {"compound": "COc1cc(C(C)=O)ccc1Oc1ncnc2c1cnn2-c1ccc(F)cc1", "activity, negative = inhibition": "inactive: -7.47%"},
      {"compound": "CC1(C)C(C=C(Cl)Cl)C1C(=O)N1CCN(c2ccccc2)CC1", "note": "(stereo not drawn)", "Potency": "inconclusive: 0.282 µM [inhibitor, full curve, poor fit]"},
      {"compound": "CCOC(=O)c1ccc(NC(=O)CN2C(=O)CSC2=O)cc1", "activity, negative = inhibition": "inactive: -10.9%"},
      {"compound": "Cc1ccc(-c2nc3c4ccccc4ccn3c2CN2CCCCC2)cc1", "Potency": "inconclusive: 11.2 µM [inhibitor, partial curve]"},
      {"compound": "O=C(Nc1cccc([N+](=O)[O-])c1)c1ccc2c(c1)OCCO2", "Potency": "inconclusive: 10 µM [inhibitor, partial curve]"},
      {"compound": "Cc1cccc(CNC(=O)c2ccc3c(c2)N(C)CCS3)c1", "Potency": "inconclusive: 14.1 µM [inhibitor, partial curve]"},
      {"compound": "CCc1ccc(C(c2ccccc2)c2c(C)[nH]c3ccccc23)s1", "note": "(stereo not drawn)", "Potency": "inconclusive: 22.4 µM [inhibitor, single point]"},
      {"compound": "Cc1ccc(NS(=O)(=O)c2ccc(N/N=C/c3ccccc3OCC(=O)O)c([N+](=O)[O-])c2)c(C)c1", "Potency": "active: 12.6 µM"},
      {"compound": "CCOc1ccc(C2C(=O)N(C3CCCCC3)CC(=O)N2Cc2ccc(F)cc2)cc1OC", "note": "(stereo not drawn)", "activity, negative = inhibition": "inactive: -10.3%"},
      {"compound": "Cn1c(=O)n(C)c2cc([N+](=O)[O-])c(N3CCN(C(=O)c4ccccc4)CC3)cc21", "Potency": "inconclusive: 20 µM [inhibitor, partial curve]"},
      {"compound": "CCS(=O)(=O)Nc1ccc2[nH]c(=O)[nH]c2c1", "activity, negative = inhibition": "inactive: 3.81%"},
      {"compound": "Cn1cnc([N+](=O)[O-])c1Sc1ccc(Br)cc1", "Potency": "inconclusive: 25.1 µM [inhibitor, partial curve, poor fit]"},
      {"compound": "Cc1ccc(CNc2nc(-c3ccco3)nn2C(=O)c2ccccc2[N+](=O)[O-])cc1", "activity, negative = inhibition": "inactive: -10.2%"},
      {"compound": "COc1ccc(/C=C2/SC(=O)N(NS(=O)(=O)c3ccccc3)C2=S)cc1OC", "Potency": "inconclusive: 12.6 µM [inhibitor, partial curve]"},
      {"compound": "S=c1[nH]nc(-c2ccco2)n1/N=C/C(Cl)=C/c1ccccc1", "Potency": "active: 14.1 µM"},
      {"compound": "CN(C)c1ccnc(NCc2ccccc2)c1C#N", "activity, negative = inhibition": "inactive: 1.05%"},
      {"compound": "CCc1cccc(C)c1Nc1c(-c2ccc(F)cc2)nc2sccn12", "Potency": "inconclusive: 25.1 µM [inhibitor, partial curve, poor fit]"},
      {"compound": "Cc1ccc(S(=O)(=O)CC(=O)N(C)C)cc1", "activity, negative = inhibition": "inactive: -1.71%"},
      {"compound": "COc1ccc(Cn2c(SCc3ccc(C(=O)NC4CCCCC4)cc3)nc3ccncc32)cc1", "activity, negative = inhibition": "inactive: 2.21%"},
      {"compound": "CC(=O)c1ccc(NC(=O)CSc2ccc(-c3ccc4c(c3)OCO4)nn2)cc1", "Potency": "inconclusive: 0.282 µM [inhibitor, full curve]"},
      {"compound": "NC(=O)C1=C[C@H](c2ccc(C(F)(F)F)cc2)C[C@H](OCCCCO)O1", "Potency": "inconclusive: 0.251 µM [inhibitor, single point]"},
      {"compound": "CC1CCCCC12NC(=O)N(CC(=O)Nc1ccc(N3CCOCC3)cc1)C2=O", "note": "(stereo not drawn)", "Potency": "inconclusive: 31.6 µM [inhibitor, single point]"},
      {"compound": "CCOC(=O)c1scc(-c2ccccc2)c1S(=O)(=O)Nc1ccccc1OC", "activity, negative = inhibition": "inactive: -1.11%"},
      {"compound": "COC(=O)/C=C1\\S/C(=N/NC(=O)c2ccccc2)NC1=O", "Potency": "inconclusive: 20 µM [inhibitor, partial curve, poor fit]"},
      {"compound": "COc1ccccc1/C=C/C(=O)NCC(=O)N/N=C/c1ccccc1", "Potency": "inconclusive: 28.2 µM [inhibitor, single point]"},
      {"compound": "C=CCOC(=O)C1=C[C@H](c2csc3ccccc23)[C@@H](CCCO)[C@H](OCC)O1", "Potency": "inconclusive: 0.631 µM [inhibitor, single point]"},
      {"compound": "Cc1ccc(-n2c(=O)c3c(C)c(C(=O)N(C)C)sc3n(CC(=O)N(C)c3ccccc3)c2=O)cc1C", "activity, negative = inhibition": "inactive: -0.318%"},
      {"compound": "Cc1ccc(C)c(NC(=O)CSc2nc3nccnc3c(=O)n2CCc2c[nH]c3ccccc23)c1", "activity, negative = inhibition": "inactive: -9.19%"},
      {"compound": "Cc1ccc2occ(-c3cc(-c4ccccc4)nc4c3COc3ccccc3-4)c(=O)c2c1", "activity, negative = inhibition": "inactive: 2.01%"},
      {"compound": "COc1cc(-c2nnc(SCc3ccccc3Cl)o2)cc(OC)c1OC", "Potency": "inconclusive: 22.4 µM [inhibitor, single point]"},
      {"compound": "CC1CCN(c2ccc(C(=O)NCCc3ccccc3)cn2)CC1", "Potency": "inconclusive: 15.8 µM [inhibitor, partial curve]"},
      {"compound": "Cc1ccc2cc(C#N)c(SCc3nnc(-c4ccccc4[N+](=O)[O-])o3)nc2c1", "Potency": "inconclusive: 3.16 µM [inhibitor, full curve]"},
      {"compound": "COc1ccc2nc(/N=C/c3c(C)[nH]n(-c4ccc(C)cc4C)c3=O)sc2c1", "Potency": "inconclusive: 17.8 µM [inhibitor, partial curve]"},
      {"compound": "CC(C)(C)NC(=O)c1cccc(NC(=O)c2ccco2)c1", "activity, negative = inhibition": "inactive: 3.62%"},
      {"compound": "Cc1c(C(=O)N2CCCC2)oc2c1-c1nn(CC(=O)NCc3ccc(OC(C)C)cc3)cc1CC2", "activity, negative = inhibition": "inactive: -16.8%"},
      {"compound": "COc1ccc(-c2nnc(SCc3ccccn3)n2C)cc1", "Potency": "inconclusive: 35.5 µM [inhibitor, single point]"},
      {"compound": "Cc1ccc(CNC(=O)CCCN2C(=S)NC(C)(C)CC2C)cc1", "note": "(stereo not drawn)", "activity, negative = inhibition": "inactive: 0.194%"},
      {"compound": "COc1ccc(CCn2c(=N)c(C(=O)N3CCN(C)CC3)cc3c(=O)n4ccccc4nc32)cc1", "Potency": "inconclusive: 8.91 µM [inhibitor, partial curve]"},
      {"compound": "CCc1cc(C(c2ccc(F)cc2)N2CCOCC2)c(NC(=O)c2ccccc2)s1", "note": "(stereo not drawn)", "Potency": "active: 31.6 µM"},
      {"compound": "O=C(Nc1ccc(N2CCCC2)cc1)C(c1ccccc1)c1ccccc1", "Potency": "inconclusive: 25.1 µM [inhibitor, partial curve, poor fit]"},
      {"compound": "CCc1cccc(NC(=O)c2cnc(N3CCOCC3)c3ccccc23)c1", "activity, negative = inhibition": "inactive: -10.2%"},
      {"compound": "Cc1ccc(NCC(O)C(O)C(O)CO)c(N=Nc2ccccc2)c1C", "note": "(stereo not drawn)", "Potency": "active: 2.51 µM"},
      {"compound": "COc1cccc(C(=O)Nc2ccc(NC(=O)c3ccco3)c(Cl)c2)c1", "Potency": "inconclusive: 0.355 µM [inhibitor, full curve, poor fit]"},
      {"compound": "CCCCOc1ccc(-n2nc(C)cc2C)nn1", "activity, negative = inhibition": "inactive: -2.75%"},
      {"compound": "O=C(NNC(=O)c1cc(-c2ccco2)nc2ccccc12)c1ccccc1", "activity, negative = inhibition": "inactive: -16%"},
      {"compound": "O=c1[nH][nH]cc1C=Nc1cc(Cl)ccc1O", "activity, negative = inhibition": "inactive: -14.8%"},
      {"compound": "O=C(NC1CC1)c1ccc(CSCc2cccc(F)c2)o1", "Potency": "inconclusive: 20 µM [inhibitor, partial curve]"},
      {"compound": "CN(C)c1cc(N/N=C\\c2ccccc2)nc(N(C)C)n1", "Potency": "inconclusive: 44.7 µM [inhibitor, partial curve]"},
      {"compound": "Cc1cc(NC(=O)Nc2ccc3c(ccn3C)c2)sn1", "Potency": "inconclusive: 14.1 µM [inhibitor, partial curve] and inconclusive: 15.8 µM [inhibitor, partial curve]"},
      {"compound": "CCCCCCNC(=O)Nc1ccc(S(=O)(=O)Nc2ccc(CCNC[C@H](O)COc3ccc(O)cc3)cc2)cc1", "Potency": "inconclusive: 39.8 µM [inhibitor, single point]"},
      {"compound": "CCOC(=O)c1ccoc1CSCc1ccc(C(=O)OC)o1", "Potency": "active: 25.1 µM"},
      {"compound": "Nc1nc2cc(S(=O)(=O)NC3=NCCCCC3)ccc2s1", "Potency": "active: 5.01 µM"},
      {"compound": "COc1cc(C(=O)Nc2ccc3nc4n(c(=O)c3c2)CCCCC4)cc(OC)c1OC", "Potency": "inconclusive: 44.7 µM [inhibitor, single point]"},
      {"compound": "c1ccc2[nH]c(SCc3cscn3)nc2c1", "activity, negative = inhibition": "inactive: -4.98%"},
      {"compound": "CC(=O)c1ccc(N2CCN(C(=O)Nc3ccc(C)cc3)CC2)cc1", "Potency": "inconclusive: 2.82 µM [inhibitor, full curve]"},
      {"compound": "COc1ccc(C(=O)COC(=O)CCN2C(=O)C3C4CC(C(Br)C4Br)C3C2=O)cc1", "note": "(stereo not drawn)", "activity, negative = inhibition": "inactive: -12.4%"},
      {"compound": "CN(C)C(=S)c1ccccc1", "Potency": "inconclusive: 12.6 µM [inhibitor, partial curve, poor fit]"},
      {"compound": "CC(=O)Nc1cccc(-c2nnc(SCC(=O)n3c4c(c5ccccc53)CCCC4)n2C)c1", "Potency": "inconclusive: 17.8 µM [inhibitor, partial curve]"}
    ]}
  ]
}
